Laboratory results from article PMC12040169 (PLOS Biology, 2025).
The other results are listed elsewhere or left out.

test system: T1, C. trachomatis L2/434/Bu expressing GFP (CTL2-GFP); design: species or system HeLa; C. trachomatis total inclusion area by high-content imaging, normalised to DMSO; conditions: total inclusion area; 28.5 h, 10 µM; inhibitor
T1 construct: L2/434/Bu GFP intracellular growth in HeLa cells
Procedure, shortened: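 Bulk GFP and resorufin signals were read first. Wells were then fixed, stained with Hoechst and imaged to detect GFP inclusions and host nuclei. MICs followed the previously described calculation.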

SMILES | % of control remaining
Cc1cc(=O)cc(C(=O)NC2CCN(c3ncccc3C#N)CC2)o1 [CBK307240] | 91.5547
CC1CCCCN1C(=O)CN1C(=O)[C@H]2CCCN2C(=O)c2ccccc21 (stereo partly drawn) [CBK286320] | 83.8322
Cc1c(C(=O)Nc2ccc(C(=O)O)cc2)nnn1-c1ccc(Cl)cc1 [CBK300532] | 42.7965
Cc1cc(C)n(CC2CCCN2CCc2ccccn2)n1 (stereo not drawn) [CBK304846] | 44.8817
O=C(O)c1cccc(N2C(=O)c3cccc4c(C(=O)c5ccccc5)ccc(c34)C2=O)c1 [CBK299809] | 81.7615
Cn1c2ccccc2c2ncn(CCCO)c(=O)c21 [CBK287951] | 45.5653
O=C(OCc1cc([N+](=O)[O-])cc2c1OCOC2)c1ccco1 [CBK297537] | 100.09
COc1ccc(CNC(=O)NC(=O)C2CCN(C(C)=O)CC2)c(OC)c1 [CBK034839] | 98.5008
COc1ccc(CCNC(=O)N2CCN(CCc3ccccc3)CC2)cc1OC [CBK158915] | 102.081
O=C1Nc2ccc(-c3cccc(C(F)(F)F)c3)cc2C(=O)N2C[C@H](O)C[C@@H]12 [CBK289273] | 114.596
c1ccc(Oc2cccc(CN3CCC(N4CCN(c5ccccc5)CC4)CC3)c2)cc1 [CBK264662G] | 84.8718
Cc1nc2n(c1C)CCN(c1ccc3nnc(C(F)(F)F)n3n1)C2 [CBK305815] | 77.6037
COc1cc(/C=N/NC(=O)c2cccnc2)cc([N+](=O)[O-])c1O [CBK262233] | 88.1485
OCc1cc(CC2(NCc3cccc4c3OCO4)COC2)no1 [CBK289314] | 97.5696
COc1ccc(C(=O)N2CCC3(CCN(C(=O)/C=C/c4ccc5c(c4)OCO5)C3)C2)cc1OC (stereo not drawn) [CBK131775] | 83.0385
O=C(c1ccno1)N1C[C@@H]2OCC(=O)N(CC3CC3)[C@@H]2C1 [CBK289680] | 111.215
Nc1ccc(-c2cn3ccnc3c(Nc3ccc(Cl)cc3)n2)cc1 [CBK066453] | 141.882
O=C(O)c1ccc(N2C(=O)CC(N3CCN(Cc4ccc5c(c4)OCO5)CC3)C2=O)cc1 (stereo not drawn) [CBK074573] | 89.3509
Cc1nn(C)cc1C(C)NC(=O)c1ccc(CN(C)C)o1 (stereo not drawn) [CBK282083] | 81.9941
CN1CCCC(NC(=O)C2CCN(Cc3ccc(F)cc3)CC2)C1 (stereo not drawn) [CBK282516] | 100.875
O=C(CCC1CCCC1)n1ccn(C(c2ccccc2)c2ccccc2)c1=O [CBK106619] | 112.11
O=C(OCCc1ccncc1)N1CCC(F)(F)CC1 [CBK200158] | 81.9493
C=Cn1cc(CN2CCCC(O)(c3ccc(F)cc3)CC2)c(C)n1 (stereo not drawn) [CBK285398] | 88.8888
COc1ccc2cc(C(=O)N3Cc4cnn(CCO)c4C3)n(C)c2c1 [CBK306707] | 82.4885
C(#Cc1cccc(-c2nc3ccccc3nc2-c2cccc(C#Cc3ccc(Sc4ccccc4)cc3)c2)c1)c1ccc(Sc2ccccc2)cc1 [CBK261158] | 93.2332
CCCNC(=O)NC1CC(C)(C)Cc2nc(N3CCOCC3)ncc21 (stereo not drawn) [CBK307232] | 76.0861

SMILES | % of control remaining
Cc1cccc(C)c1NC(=O)CN1CCC(Oc2cncc(OCC3COc4ccccc4O3)n2)C1 (stereo not drawn) [CBK084373] | 90.3077
Cc1ccc(C(=O)C(OC(=O)COc2ccccc2C)c2ccccc2)cc1C (stereo not drawn) [CBK265512] | 130.392
Cc1ccc(NC(=O)c2cnc(SCc3ccccn3)n(C)c2=O)cc1 [CBK287673] | 97.4862
Cc1nn(Cc2c(F)cccc2Cl)c(C)c1NC(=S)Nc1ccc(S(N)(=O)=O)cc1 [CBK267121] | 91.6417
O=C(NNS(=O)(=O)c1ccc([N+](=O)[O-])cc1)Nc1cccc(C(F)(F)F)c1 [CBK266871] | 103.917
Cc1nnc(SCC(=O)N2CCN(Cc3ccccc3)CC2)s1 [CBK267196] | 135.632
CCOC(=O)CN1CCC(Oc2cncc(OCC3COc4ccccc4O3)n2)C1 (stereo not drawn) [CBK084375] | 80.9017
CCC(CC)C(=O)N(C)c1c(C)nc2ccc(C(=O)NCc3ccc(OC)cc3)cn12 [CBK146501] | 115.069
Cc1cc(-c2nccnc2NCc2ccccn2)cc(C)c1O [CBK036921] | 116.628
CS(=O)(=O)CCNC(=O)c1cnc(-c2ccc(F)cc2)c(-c2ccco2)c1 [CBK037505] | 126.902
COc1ccc(C2N(CCC(=O)O)CCOC23CCN(C(=O)c2ccc4ccccc4c2)CC3)cc1 (stereo not drawn) [CBK115960] | 104.216
Cc1ccc(S(=O)(=O)Nc2cc(SCC(=O)O)c(O)c3ccccc23)cc1 [CBK265708] | 31.2618
C=C(C)CNC(=O)c1cc(-c2ccc(OC)cc2)cnc1NCC1CC1 [CBK076339] | 83.9354
CC(CN(C)C(=O)Cn1cccc(C(=O)NC2CCCCC2)c1=O)c1ccccc1 (stereo not drawn) [CBK286066] | 86.547
Cn1ccnc1C1(O)CC2CCC(C1)N2C(=O)c1ccco1 (stereo not drawn) [CBK284179] | 65.7231
CCCCc1ccc(-c2cnc3nc(O)ccc3c2)cc1 [CBK081296] | 72.2096
Cc1ccc(NC(=O)COc2cccnc2)c(C)n1 [CBK200379] | 107.434
CC(Cc1cccs1)NC(=O)c1cccc(-n2cnnc2)c1 (stereo not drawn) [CBK282443] | 123.126
CNC(=O)CCCc1[nH]nc(O)c1Cc1c(Cl)cccc1Cl [CBK085827] | 82.0141
O=C(N/N=C/c1ccc(C(=O)O)cc1)C(=O)Nc1cccc(Br)c1 [CBK262185] | 98.8095
COc1ccc(OC)c(C(=O)c2coc3ccc(OCC(=O)O)cc23)c1 [CBK111288] | 92.7555
C#CCNC(=O)CC[C@H]1CNC(=O)[C@@H]2[C@@H](CCN2Cc2nc3ccccc3n2C)N1C [CBK289018] | 122.386
FC(F)(F)c1cnc(Sc2c[nH]nn2)c(Cl)c1 [CBK007252] | 89.8646
c1ccc2c(c1)CCC2Oc1cncc(N2CCNCC2)n1 (stereo not drawn) [CBK200005G] | 78.8927
CN1C[C@@H](NC(=O)c2ccc3c(c2)OCO3)C[C@H]1c1nc(-c2ccccc2)no1 [CBK288876] | 84.6978
O=C(O)CCn1c(SCCc2ccccc2)nc2ccccc21 [CBK262384] | 90.2882

SMILES | % of control remaining
Cc1nc(C)c(-c2csc(CC(C)n3cc(Cl)cn3)n2)o1 (stereo not drawn) [CBK304710] | 44.5473
Cc1ccc(-c2nn3c(C)nnc3c3ccccc23)cc1S(N)(=O)=O [CBK268342] | 91.8455
CCOC(=O)c1c(NC(=O)Cc2ccccc2)sc2c1CCC2 [CBK262309] | 85.1409
O=C(Cc1ccc(Br)cc1)Nc1cc(C(=O)O)cc(C(=O)O)c1 [CBK268228] | 137.185
O=C(c1cnc(-c2ccccc2)c(-c2cccnc2)c1)N1CCC(S(=O)(=O)c2ccccc2)C1 (stereo not drawn) [CBK036685] | 101.441
O=C(C1CC2C=CC1C21CC1)N1CCN(Cc2ccccn2)CC1 (stereo not drawn) [CBK281443] | 104.19
CN1CCN(c2ccccc2NC(=O)c2ccc3c(c2)OCCO3)CC1 [CBK268072] | 93.5246
Cc1ccc(-n2ncc3c(=O)n(CC(=O)Nc4ccccc4)cnc32)cc1C [CBK287539] | 81.9034
O=C(Nc1ccc(SC(F)F)cc1)c1cc(-c2ccncc2)nc2ccccc12 [CBK296092] | 103.34
Cc1c(Cl)c([N+](=O)[O-])nn1CC(=O)N1CCN(C)CC1 [CBK261719] | 93.8868
Cc1nc(NS(=O)(=O)c2cccc(Cl)c2C)sc1C(=O)O [CBK045561] | 91.2596
O=C(Nc1cc(N2CCNCC2)ncn1)c1ccccc1 [CBK004215T] | 112.835
Cc1cccc(CC(=O)N2CCC(Cc3ccccc3-c3ccccc3C)(C(N)=O)CC2)c1 [CBK285728] | 102.902
CCOC(=O)CCCCCCC(=O)N1CCN(c2ccc(C(F)(F)F)cc2)CC1 [CBK091327] | 105.077
COC(=O)c1sc2cc(C(F)(F)F)cnc2c1-c1ccccn1 [CBK089888] | 84.4595
CCOC(=O)N1CCC(NS(=O)(=O)c2ccc(Cl)c(Cl)c2Cl)CC1 [CBK045471] | 111.565
COc1ccccc1C(=O)CN1CCC2(CC1)OCCc1c2[nH]c2ccc(F)cc12 [CBK040238] | 96.8031
O=C(COc1cccc2ccccc12)Nc1ccc(O)cc1 [CBK266002] | 104.571
CCC(CC)C(=O)N1C[C@H]2CCc3nnc(-c4ccccc4)n3[C@H]2C1 [CBK283439] | 99.7488
Cc1cc(C(=O)O)c(C)cc1N [CBK022781] | 45.7176
COc1ccc(-c2cc3n[nH]c(=O)n3c(C)n2)cc1 [CBK288439] | 91.7398
CC(=O)Nc1ccc(S(=O)(=O)Nc2nnc(CC(C)(C)C)s2)cc1 [CBK049910] | 106.837
CCCc1n[nH]c(O)c1Cc1ccc(OCCCN(C)C)cc1 [CBK116249A] | 87.4337
Cc1cc(=O)oc2cc(NC(=S)NNC(=O)C(C)Sc3nc4ccccc4s3)ccc12 (stereo not drawn) [CBK267056] | 108.056
Cc1cc(C)cc(Cn2cc(NCc3ccccc3)c(=O)[nH]c2=O)c1 [CBK288009] | 116.255
Cc1ccc(NC(=O)N(Cc2ccc(-c3ccccc3)cc2)CC(C)(C)CN)cc1[N+](=O)[O-] [CBK002439C] | 26.977
